Among the test systems are NCI/ADR-RES; UO-31; HOP-92; CCRF-CEM; MOLT-4; HCT-116; LOX IMVI; A498; CAKI-1; HL-60; SNB-75; EKVX; NCI-H522; K562; NCI-H460; RXF 393; RPMI-8226; Malme-3M; MDA-MB-435; TK-10; T47D; MCF7; OVCAR-4; SR.
What all share (assay): NCI tumour cell line growth inhibition, 48 h

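Protocol summary: plate cells (96-well), add compound at 5 concentrations, incubate 48 h, interpolate endpoints linearly. Here, GI50 denotes the concentration required for 50% inhibition of growth.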 Calls of active or inactive are those of the source. Cut-off read from the data, not from the text of the source: active = GI50 up to about 1.1 µM and inactive = higher.

`CCCC(=O)Oc1cc2c(c(OC)c1OC)-c1ccc(SC)c(=O)cc1[C@@H](NC(C)=O)CC2`: the GI50 is active: 962 nM in the assay on NCI/ADR-RES; active: 719 nM in the assay on UO-31; active: 4.73 nM in the assay with HOP-92; active: 5.04 nM in the assay on CCRF-CEM; active: 4.36 nM with MOLT-4; active: 2.51 nM in the assay with HCT-116. In addition, the GI50 was active: 2.79 nM in the assay with LOX IMVI; active: 220 nM in the assay with A498; inactive: 5120 nM in the assay with CAKI-1; active: 2.17 nM with HL-60; active: 10 nM with SNB-75; inactive: 1120 nM with EKVX. Also, the GI50 in the assay on NCI-H522 was active: 1.94 nM; with K562, active: 2.94 nM; in the assay on NCI-H460, active: 7.36 nM; with RXF 393 it was active: 2.88 nM; in the assay with RPMI-8226, active: 3.48 nM; with Malme-3M, active: 13.6 nM. The GI50 with MDA-MB-435 is active: 1.39 nM; in the assay on TK-10, inactive: 94800 nM; in the assay on T47D it was inactive: 10000 nM; in the assay with MCF7 it was active: 4.14 nM; in the assay with OVCAR-4 it was inactive: 9930 nM; in the assay on SR it was active: 2.01 nM.
